According to PubChem BioAssay AID1030 (National Center for Advancing Translational Sciences (NCATS), 2008):
The whole screen tested about 220,000 compounds, of which about 16,000 (7.3%) were called active. The shares of active, inactive and inconclusive entries below differ from those in the screen. Calls come from the whole dose curve; as a rule, active = well fitted inhibition curve with a large enough effect (not every such curve was filed as active); inconclusive = small, poorly fitted or top-dose-only effect, or another doubt; inactive = no such curve, though single readings can be large or run the other way. No potency is given beside an inconclusive call; the fits are too rough.

biological target: Aldehyde dehydrogenase 1A1 (Homo sapiens) (UniProt P00352); assay: qHTS Assay for Inhibitors of Aldehyde Dehydrogenase 1 (ALDH1A1); conditions: Purified ALDH1A1, NADH fluorescence, propionaldehyde substrate; series mostly up to 75.3 µM; activity, negative = inhibition: at the top concentration;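 for activity, negative = inhibition: plate controls were no enzyme wells and a reference inhibitor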
Potency is the fitted concentration of half-maximal effect; tags give direction and shape of the fitted curve.

UniProt P00352, sequence (P00352 whole entry, looked up): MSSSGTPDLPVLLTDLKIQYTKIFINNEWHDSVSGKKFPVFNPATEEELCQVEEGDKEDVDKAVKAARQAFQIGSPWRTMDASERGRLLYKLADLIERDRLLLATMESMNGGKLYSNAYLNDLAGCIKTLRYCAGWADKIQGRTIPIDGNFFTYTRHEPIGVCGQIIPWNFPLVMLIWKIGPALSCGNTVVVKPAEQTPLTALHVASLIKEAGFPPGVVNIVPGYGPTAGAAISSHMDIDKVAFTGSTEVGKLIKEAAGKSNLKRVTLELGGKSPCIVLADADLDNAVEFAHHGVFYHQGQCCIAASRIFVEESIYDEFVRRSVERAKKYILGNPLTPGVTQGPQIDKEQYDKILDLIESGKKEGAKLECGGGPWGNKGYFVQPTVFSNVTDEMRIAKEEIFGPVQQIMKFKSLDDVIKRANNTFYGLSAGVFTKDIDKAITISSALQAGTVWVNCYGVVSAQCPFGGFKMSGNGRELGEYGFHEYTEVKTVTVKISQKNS

Compound | activity, negative = inhibition | Potency
COc1cc(-c2cc(N)n(S(=O)(=O)c3ccccc3)n2)cc(OC)c1OC | inactive: 4.76% | –
CCC(=O)N(Cc1cc2cc(OC)ccc2[nH]c1=O)c1cc(C)ccc1C | – | inconclusive [inhibitor, partial curve]
COc1cccc(C2C3(C#N)C(N)=NC(OC)(OC)C23C#N)c1 (stereo unspecified) | inactive: 22.9% | –
Cc1ccccc1N1C(=O)CC(N2CCC(C(N)=O)CC2)C1=O (stereo unspecified) | – | inconclusive [inhibitor, single point]
COc1ccc2nc(NC(=O)C3=NN(c4ccccc4)C(=O)CC3)sc2c1 | – | inconclusive [inhibitor, single point]
COc1ccc(S(=O)(=O)CC2(O)CCN(C(=O)CC(C)C)CC2)cc1 | – | inconclusive [inhibitor, partial curve]
CCOc1ccc(NC(=O)CN2CCN(CC(=O)Nc3ccc4c(c3)OCCO4)CC2)cc1 | – | active: 8.91 µM
O=C(O)/C=C\C(=O)Nc1cccc2c1-c1ccccc1C2=O | inactive: 1.02% [at 13.5 µM] | –
COc1ccc(SN=C2C(C)=CC(=O)C=C2C)cc1 | inactive: 2.52% | –
CC1(C)Cc2c(sc(NC(=O)c3ccccc3Cl)c2C(=O)O)CO1 | inactive: -15.5% | –
COc1ccc2cc(C#N)c(N3CCN(C(=O)c4ccccc4C)CC3)nc2c1 | – | inconclusive [inhibitor, partial curve]
O=C(c1csnn1)N1CCC[C@@]2(CCN(c3ccncc3)C2)C1 | inactive: -6.45% | –
O=C(O)CSc1cc(NS(=O)(=O)c2cccc([N+](=O)[O-])c2)c2ccccc2c1O | – | active: 3.55 µM
CC(C)CC1C(C#N)=C(N)Oc2n[nH]c(-c3ccccc3)c21 (stereo unspecified) | – | inconclusive [inhibitor, single point]
COc1ccccc1NS(=O)(=O)c1ccc2oc(SCc3ccc(C#N)cc3)nc2c1 | inactive: 1.01% | –
COc1ccc(S(=O)(=O)CCC(=O)Nc2cc(C)ccc2OC)cc1 | – | active: 25.1 µM
Cc1nc(N2CCN(C(=O)c3ccco3)CC2)c2c3c(sc2n1)CCC3 | – | inconclusive [inhibitor, single point]
COc1ccc(-c2nc(NC(=O)C3CC(=O)N(c4ccc5c(c4)OCCO5)C3)sc2C)cc1 (stereo unspecified) | – | inconclusive [inhibitor, single point]
Cn1cc(CNCc2ccc(OC(F)(F)F)cc2)c(-c2ccc3c(c2)OCCO3)n1 | – | inconclusive [inhibitor, single point]
O=S(=O)(c1ccccc1)c1cccc(S(=O)(=O)N2CCCCC2)c1 | – | active: 2.24 µM
Nc1c(C(=O)NCc2ccco2)sc2nc(N3CCOCC3)c3c(c12)CCCC3 | – | inconclusive [inhibitor, partial curve]
COCCn1c(=O)[nH]c2cc(C(=O)NCCN3CCN(c4ccc(OC)cc4)CC3)ccc2c1=O | – | inconclusive [inhibitor, single point]
CC(C)(C)c1cc(C(=O)Nc2ccccc2)ccn1 | inactive: 3.5% | –

Compound | activity, negative = inhibition | Potency
N#CC1=C(N)NC(SCc2ccc(Cl)cc2)=C(C#N)C12CCCCC2 | – | active: 12.6 µM
CC(C)(C)NS(=O)(=O)c1ccc(CCC(=O)NCc2cccnc2)cc1 | – | inconclusive [inhibitor, partial curve]
CC(C)N(C(=O)c1ccc(-c2ccccc2F)cc1)C(C)C | inactive: -6.51% | –
Cc1nn2c(NCCCN3CCOCC3)c3c(nc2c1-c1ccccc1)CCC3 | – | inconclusive [inhibitor, partial curve]
Nc1ccccc1C(=O)Nc1ccc(Cl)cc1Cl | – | inconclusive [inhibitor, partial curve]
C=CCOc1ccc(CNc2nccs2)cc1OCC | – | inconclusive [inhibitor, partial curve, poor fit]
CCN(CC(=O)NC1CCS(=O)(=O)C1)C(=O)/C=C/c1cccs1 (stereo unspecified) | inactive: 2.74% | –
CC(C)CC(=O)Nc1nc2ccc(S(C)(=O)=O)cc2s1 | – | inconclusive [inhibitor, single point]
COC(=O)c1cc(-c2ccccc2)c2c(=O)n(C)c(=O)n(C)c2n1 | – | inconclusive [inhibitor, partial curve]
CCCCCCCc1cc2c(cn1)=C(OC)C(C)(OC(C)=O)C(=O)C=2Cl (stereo unspecified) | inactive: -10.9% | –
O=C1N/C(=C/c2cccn2-c2ccccc2)C(=O)N1Cc1ccc(F)cc1 | – | inconclusive [inhibitor, single point]
CC(C)c1ccc(S(=O)(=O)N2CCN(CC(=O)Nc3ccc4c(c3)OCO4)CC2)cc1 | – | inconclusive [inhibitor, single point]
Cc1cccc(C)c1N1CCN(S(=O)(=O)N2CCOCC2)CC1 | – | inconclusive [inhibitor, single point]
NCCCCCc1nnc(SCc2ccc(Cl)cc2Cl)o1 | inactive: 8.92% | –
Cc1ccc(NS(=O)(=O)c2ccccc2)c2c1CC(C)(C)O2 | – | inconclusive [inhibitor, partial curve]
Cc1ccc(N/C=C(\[N+](=O)[O-])S(=O)(=O)c2ccccc2)cc1 | – | inconclusive [inhibitor, single point]
Cc1cc(C(=O)NCCCC(=O)O)c(C)o1 | inactive: -0.309% | –
C/C(O)=c1/cnc2nc3ccccc3n2c1=O | – | inconclusive [inhibitor, partial curve]
N#Cc1nc(-c2ccc(OCc3ccccc3)cc2)oc1NCc1cccnc1 | – | inconclusive [inhibitor, single point]
CCCCCOCC1CC(C/C(C)=N/NC(N)=S)C(=O)O1 (stereo unspecified) | – | inconclusive [inhibitor, single point]
COc1ccc2c(c1)OC13CCCCC1C2C(C(=O)c1ccccc1)C(=O)N3 (stereo unspecified) | – | inconclusive [inhibitor, single point]
CCn1c2c(c3ccc(OC)cc31)CCCC2=O | – | inconclusive [inhibitor, single point]
CCCCCC(=O)Nc1nc2ccccc2[nH]1 | – | inconclusive [inhibitor, single point]
